Screen size: about 370,000 compounds; about 1,100 (0.3%) were called active. About 1% were inconclusive and are not listed. Calls come from the whole dose curve; as a rule, active = well fitted activation curve with a large enough effect; inconclusive = small, poorly fitted or top-dose-only effect; inactive = flat fitted curve, though single readings scatter. The entries are a selection whose mix differs from that of the whole data set. Some structures have more than one record in an assay (separate samples or runs), and their calls can disagree.

We go through 60 compounds from PubChem BioAssay AID2676 (National Center for Advancing Translational Sciences (NCATS), 2010).
% is set by controls: 0 for no effect and ±100 for the full control effect; potency is the fitted concentration of half-maximal effect.

UniProt Q9HBX9, sequence (Q9HBX9 whole entry, looked up): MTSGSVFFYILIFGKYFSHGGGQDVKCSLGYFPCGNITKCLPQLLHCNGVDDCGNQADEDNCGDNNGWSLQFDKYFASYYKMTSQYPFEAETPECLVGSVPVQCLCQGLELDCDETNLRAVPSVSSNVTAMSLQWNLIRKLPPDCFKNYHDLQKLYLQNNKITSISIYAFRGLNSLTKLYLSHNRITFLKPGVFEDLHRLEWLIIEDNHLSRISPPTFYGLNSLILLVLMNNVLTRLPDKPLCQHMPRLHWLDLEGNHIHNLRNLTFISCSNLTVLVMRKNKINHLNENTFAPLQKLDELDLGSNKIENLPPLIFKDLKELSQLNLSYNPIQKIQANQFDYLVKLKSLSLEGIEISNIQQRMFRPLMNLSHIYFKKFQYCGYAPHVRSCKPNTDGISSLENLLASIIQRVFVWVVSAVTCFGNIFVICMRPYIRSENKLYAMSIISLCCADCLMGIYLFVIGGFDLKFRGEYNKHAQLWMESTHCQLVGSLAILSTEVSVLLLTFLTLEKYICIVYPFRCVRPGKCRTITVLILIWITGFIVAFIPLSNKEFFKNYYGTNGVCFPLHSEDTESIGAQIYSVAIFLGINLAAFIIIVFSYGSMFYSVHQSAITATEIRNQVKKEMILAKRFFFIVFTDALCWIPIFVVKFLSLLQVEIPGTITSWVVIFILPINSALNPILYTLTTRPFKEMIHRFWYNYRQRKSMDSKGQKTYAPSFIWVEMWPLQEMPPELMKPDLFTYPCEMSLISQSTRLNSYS

The target in the assay is Relaxin receptor 1 (Homo sapiens) (UniProt Q9HBX9). Kind of assay: qHTS Assay for Agonists of the Relaxin Receptor RXFP1. Note: nearly all actives have a fitted effect of over 60% in size. To be noted: HEK293T-RXFP1 cAMP TR-FRET, 30 min; series mostly up to 57.5 µM; activation: at the top concentration. The source says:
NIH Chemical Genomics Center [NCGC] NIH Molecular Libraries Probe Production Centers Network [MLPCN] MLPCN Grant: R03 MH085705-01A1 Assay Submitter (PI): Alexander Agoulnik NCGC Assay Overview: The relaxin hormone is involved in the variety of biological functions in normal tissues and diseases. The role of relaxin is well-established in female reproduction and parturition, mammary gland and endometrial development, maintenance of myometrial quiescence during pregnancy. Relaxin signaling through its G protein-coupled receptor (GPCR) RXFP1 results in ECM remodeling through regulation of collagen deposition, cell invasiveness, proliferation and overall tissue homeostasis. […] Recombinant human relaxin (rhRlx) is currently being tested in clinical trials as a protective agent in congestive heart failure, in treating severe preeclampsia, and as an anti-fibrotic agent in systemic sclerosis. Upon relaxin binding RXFP1 activation leads to the activation of adenylate cyclase (AC) via Gs. cAMP will activate PKA, which phosphorylates many signaling proteins. Thus, detection of cAMP increase is an easy and reliable indication of relaxin receptor activation. To screen for agonists of the relaxin receptor, a HEK293T cell line stably transfected with RXFP1 was used. RXFP1 activation was assayed by changes in cAMP levels as detected with a time-resolved fluorescence energy transfer (TR-FRET) cAMP detection kit.
NCGC Assay Protocol Summary: This is a cell-based assay for cAMP second messenger response to screen for agonists of the RXFP1 receptor. The assay was conducted in the presence of a PDE4 inhibitor (Ro 20174). The cells were lysed and the cAMP levels were measured with a TR-FRET cAMP kit. Presence of cAMP in the cell lysate disrupts binding between the cryptate-labeled anti-cAMP and d2-labeled cAMP pair, leading to a decrease in the TR-FRET signal. Data were normalized to the controls for basal activity (buffer only) and 100% activity (29 nM porcine relaxin). The EC50 values were determined from concentration-response data modeled with the standard Hill equation 1536-well assay protocol for the HEK293 RXFP1 cAMP assay: (1) Add 3 ul HEK293 RXFP1 cell culture. 2000 cells/well in DMEM/F12, 10% FBS, 1x Pen/Strep (dispensed offline with MultiDrop Combi). (2) Incubate 16-24 hr at 37C, 5% CO2. (3) Add 1 ul 400uM Ro20174 in DPBS, 0.05% BSA, 0.005% Tween 20. (3) Add 23 nl compounds in DMSO solution. Final concentration was 0.5 - 58 uM. (4) Incubate 30 min at 37C, 5% CO2. (5) Add 1 ul cAMP-d2 in lysis buffer (HTRF cAMP HiRange kit, CisBio). (6) Add 1 ul anti-cAMP antibody-cryptate in lysis buffer (HTRF cAMP HiRange kit, CisBio). (7) Incubate 30 min at room temperature. (6) Detect the assay plate in a ViewLux plate reader (PerkinElmer) with Ex=320 nm, Em1=615 nm and Em2=665 nm. Keywords: relaxin, RXFP1, RXFP2, G-protein coupled receptor, cAMP, agonist, high throughput screening, MLSMR, MLSCN, NIH Roadmap, qHTS and NCGC
On the technique in general: In qHTS, concentration-response curves come from the screen itself.
For the compound `COCCCn1c(=O)c2sccc2n2c(CCCC(=O)NCc3ccc(F)cc3)nnc12`, the “activation” value is inactive: 24.4%.

As to `CCCCN(CC)C(=O)c1cc2c(=O)n3cccc(C)c3nc2s1`, the “activation” value is inactive: 29.9%.

Turning to `Cc1c(C(=O)NNc2cc(=O)n(C)c(=O)n2C)cccc1[N+](=O)[O-]`, the Potency is active: 14.1 µM.

`Nc1ccc(-c2ccc(N)c(C(=O)O)c2)cc1C(=O)O`: the “activation” value was inactive: -56.1%.

Turning to `COc1ccc2[nH]c3c(=S)nc[nH]c3c2c1`, the Potency is active: 15.8 µM.

As for `NCc1cc2c3c(c1)CCCN3CCC2`, the “activation” value is inactive: -56.1%.

For the compound `O=C(NN1C(=O)c2ccccc2NC1c1ccc([N+](=O)[O-])o1)c1ccc([N+](=O)[O-])cc1` (stereo not given), the Potency was active: 2.82 µM.

As to `Cc1ccc(CSc2ccc(-c3cccs3)nn2)cc1`, the “activation” value is inactive: 13.4%.

As for `Cc1ccc(NC(=O)Cn2c(=O)n(-c3ccccc3)c(=O)c3ccc(C(=O)NCc4ccc5c(c4)OCO5)cc32)cc1`, the Potency is active: 22.4 µM.

For `Cc1ccc(NC(=O)c2cc(-c3ccc4c(c3)OCO4)on2)cc1`, the “activation” value is inactive: 0.687%.

Consider `Cc1cc(C)c2oc(C(=O)NCCc3ccc(S(N)(=O)=O)cc3)cc(=O)c2c1`, for which the “activation” value is inactive: 13.7%.

Regarding `CC1=NN(c2ccccc2)C(=O)C1/C=C1\NC(=S)NC1=O` (stereo not given), the “activation” value is inactive: -1.68%.

Consider `CSc1ncc(Cl)c(C(=O)Nc2ccc(S(=O)(=O)Nc3nccc(C)n3)cc2)n1`, for which the “activation” value is inactive: 0.187%.

On to `CCOc1ccc(Cn2nnc(C(=O)NCc3ccc(OC)cc3)c2N)cc1`, for which the Potency was active: 31.6 µM.

Regarding `Cc1ccc(-c2c(C(=O)Nc3ccccc3C)c(C)[nH]c(=S)c2C#N)o1`, the Potency is active: 28.2 µM.

Take `O=C(Nc1ccc(F)cc1F)c1cc(-c2ccc3c(c2)OCO3)on1`: the “activation” value was inactive: 9.37%.

With `Cc1ccc(-c2nc(SCC(=O)Nc3cc(C)on3)c3c(=O)n(C)c(=O)n(C)c3n2)cc1`, the “activation” value was inactive: 13.1%.

Consider `CC(C)CN(CC(C)C)S(=O)(=O)c1ccc(C(=O)Nc2sc3c(c2C(N)=O)CCN(C(C)C)C3)cc1`, for which the “activation” value was inactive: -56.2%.

With `CCc1ccc(NC(=O)c2c(C(=O)Nc3ccccc3)sc3nc(C)cc(=O)n23)cc1`, the “activation” value was inactive: 14%.

As for `COc1ccccc1NS(=O)(=O)c1cccc(NC(=O)c2[nH]c(C)c(C(C)=O)c2C)c1`, the “activation” value was inactive: -30.5%.

In the case of `CCOC(=O)c1c(NC(=O)c2cc(CC(C)C)on2)sc(C(C)=O)c1C`, the “activation” value is inactive: 5.43%.

In the case of `CNCC(O)c1ccc(O)c(O)c1` (stereo not given), the “activation” value was inactive: 17.8%.

For the compound `O=C(Nc1nc2cc3c(cc2s1)OCO3)c1ccc(N2C(=O)CCC2=O)cc1`, the “activation” value is inactive: -111%.

As for `CCCN1CCc2nc(SCC(=O)Nc3ccc(C)c(Cl)c3)[nH]c(=O)c2C1`, the “activation” value is inactive: 12.9%.

For `COc1ccc(CN2C(=O)c3cccnc3C2=O)cc1S(=O)(=O)NCc1ccc(C)o1`, the Potency is active: 15.8 µM.

For `CC1=NN(c2ccccc2)C(=O)C1/C=C1/NC(=S)NC1=O` (stereo not given), the “activation” value is inactive: -75.3%.

With `COC(=O)c1c(NC(=O)c2ccc(S(=O)(=O)N3CCCCC3)cc2)sc2c1CCN(C)C2`, the “activation” value is inactive: -43.9%.

For the compound `CCOC(=O)CC(NC(=O)CCc1c(C)nc2ncnn2c1C)c1ccc(OC(C)C)cc1` (stereo not given), the “activation” value is inactive: 29.8%.

Take `O=C(N=c1ccn(-c2nc3ccccc3nc2NS(=O)(=O)c2ccc(Cl)cc2)cc1)c1cccs1`: the “activation” value is inactive: -31.1%.

In the case of `O=C(Nc1nnc(S(=O)(=O)N2CCOCC2)s1)c1ccccc1Cl`, the “activation” value is inactive: -0.494%.

For `O=C1c2cccnc2C(=O)N1Cc1ccc(F)cc1S(=O)(=O)NCc1ccco1`, the Potency was active: 25.1 µM.

With `CCN1/C(=C/c2ccc3cc(C)ccc3[n+]2C)Sc2ccc3sccc3c21`, the “activation” value is inactive: -37.9%.

For `CCOC(=O)c1cc2c(=O)n3ccccc3nc2n(Cc2ccco2)c1=NC(=O)c1ccccc1OC`, the “activation” value was inactive: 21.4%.

In the case of `COc1cccc(/C=N/NC(=O)Cn2cnc3c2c(=O)n(C)c(=O)n3C)c1OC`, the Potency is active: 17.8 µM.

Take `CC(=O)Nc1ccc(Br)c2ccccc12`: the Potency was active: 28.2 µM.

As for `CSc1nc(O)c(Nc2cccc(Cl)c2)c(=O)[nH]1`, the “activation” value was inactive: -40.7%.

Regarding `Cc1nn(CC(=O)N2CCN(c3cccc(C(F)(F)F)c3)CC2)c(=O)c2cccn12`, the Potency was active: 35.5 µM.

Turning to `Cc1ccc(S(=O)(=O)NC(=O)Nc2ccc(N(C)C)cc2)cc1`, the “activation” value is inactive: -34.9%.

Take `O=C(O)CCNc1ccc(NCCC(=O)O)c2c1C(=O)c1ccccc1C2=O`: the “activation” value was inactive: -115%.

In the case of `O=C(Oc1ccccc1)Oc1ccc2c(c1)oc(=O)c1ccccc12`, the Potency was active: 7.94 µM.

Turning to `CCCn1c(=N)c(C(=O)NC2CCCC2)cc2c(=O)n3cccc(C)c3nc21`, the “activation” value is inactive: 11.9%.

In the case of `COC(=O)c1sc(N2C(=O)C(O)=C(C(=O)c3ccc(C)o3)C2c2cccs2)nc1C` (stereo not given), the Potency is active: 12.6 µM.

On to `O=C(Nc1cccc2ccccc12)C(=O)C1C(=O)Nc2ccccc21` (stereo not given), for which the “activation” value is inactive: -35.6%.

On to `Cc1ccc(-c2csc(/C=C3\SC(C)C(=O)N3CC(=O)Nc3ccccc3F)n2)cc1` (stereo not given), for which the “activation” value is inactive: -33.4%.

Turning to `CCN(CC)c1ccc2c(-c3ccc(S(=O)(=O)O)cc3S(=O)(=O)[O-])c3ccc(=[N+](CC)CC)cc-3oc2c1`, the Potency is active: 28.2 µM.

For the compound `CCOC(=O)c1c(NC(=O)c2ccc(S(=O)(=O)N3CCC(C)CC3)cc2)sc2c1CCN(C(C)C)C2`, the “activation” value was inactive: -43.1%.

Regarding `COc1ccc2nc3sc(C(=O)NCCc4ccc(Cl)cc4)cc3cc2c1`, the “activation” value was inactive: -41.5%.

Consider `Cc1cccc(CNC(=O)c2ccc3c(c2)N(C)CCS3)c1`, for which the “activation” value was inactive: 14.6%.

Consider `CCN(CC)S(=O)(=O)c1ccc(Cl)c(NC(=O)CSc2cccc[n+]2[O-])c1`, for which the Potency was active: 25.1 µM.

For `CCOc1ccc(NC(=O)c2sc3nc4n(c(=O)c3c2C)CCC4)cc1`, the “activation” value is inactive: 0.506%.

In the case of `CCOC(=O)CCc1c(C)nc2c(c(C)nn2-c2ccc(C)cc2)c1C`, the “activation” value was inactive: -18.9%.

Turning to `CC1=C/C(=C(\c2cc(C)c(O)c(Br)c2)c2ccccc2S(=O)(=O)O)C=C(Br)C1=O`, the “activation” value is inactive: -52.3%.

For the compound `O=c1ccc2[n+]([O-])c3ccc(O)cc3oc-2c1`, the “activation” value is inactive: -35.9%.

As to `O=C(Cn1c(=O)c2cccn2c2ccccc21)NCCc1ccccc1`, the “activation” value is inactive: -3.61%.

`Cc1ccc(C)c(NC(=O)C2CCCN(S(=O)(=O)c3ccc4[nH]c(=O)ccc4c3)C2)c1` (stereo not given): the “activation” value was inactive: 7.71%.

Turning to `CCCCC1=CC2=C(c3ccco3)C(=O)C(C)(OC(=O)c3ccc(OC)cc3)C(=O)C2=CN1CC(C)C` (stereo not given), the Potency is active: 15.8 µM.

As to `CN1CCc2c(sc(NC(=O)CSc3ccc(F)cc3)c2-c2nc3ccccc3s2)C1`, the “activation” value is inactive: -30.3%.

In the case of `Cc1cccc2cc(C#N)c(SCC(=O)NCc3cccs3)nc12`, the Potency is active: 12.6 µM.

For `COc1ccc(CNC(=O)CN2C(=O)NC(C)(c3cccc(Br)c3)C2=O)cc1` (stereo not given), the “activation” value was inactive: -30.1%.

For the compound `CCc1ccc(NC(=O)Cn2ccn(-c3cccc(Cl)c3)c(=O)c2=O)cc1`, the “activation” value is inactive: 4.43%.
